Results published in PubChem BioAssay AID588342 (National Center for Advancing Translational Sciences (NCATS), 2011).
Among all 360,000 compounds or so, about 25,000 (6.9%) were called active. Inconclusive means that the source gave no clear call. Such entries were picked first, then a sample of the others. The call rests on the fitted dose curve; in most records, active means well fitted inhibition curve with a large enough effect; inconclusive means small, poorly fitted or top-dose-only effect; inactive means flat fitted curve, though single readings scatter. Where the call is inconclusive, the potency comes from a doubtful curve fit.

biological target: Luciferin 4-monooxygenase (Photinus pyralis) (UniProt P08659); assay: qHTS profiling assay for firefly luciferase inhibitor/activator using purifed enzyme and Km concentrations of substrates (counterscreen for miR-21 project); details: purified FLuc, luminescence inhibition; series mostly up to 57.5 µM; activity change, negative = inhibition: at the top concentration; further: nearly all actives have a fitted effect of over 55% in size;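 on activity change, negative = inhibition: plate controls were vehicle for no effect and reference inhibitor for full effect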
Sequence of UniProt P08659 (P08659 whole entry, looked up): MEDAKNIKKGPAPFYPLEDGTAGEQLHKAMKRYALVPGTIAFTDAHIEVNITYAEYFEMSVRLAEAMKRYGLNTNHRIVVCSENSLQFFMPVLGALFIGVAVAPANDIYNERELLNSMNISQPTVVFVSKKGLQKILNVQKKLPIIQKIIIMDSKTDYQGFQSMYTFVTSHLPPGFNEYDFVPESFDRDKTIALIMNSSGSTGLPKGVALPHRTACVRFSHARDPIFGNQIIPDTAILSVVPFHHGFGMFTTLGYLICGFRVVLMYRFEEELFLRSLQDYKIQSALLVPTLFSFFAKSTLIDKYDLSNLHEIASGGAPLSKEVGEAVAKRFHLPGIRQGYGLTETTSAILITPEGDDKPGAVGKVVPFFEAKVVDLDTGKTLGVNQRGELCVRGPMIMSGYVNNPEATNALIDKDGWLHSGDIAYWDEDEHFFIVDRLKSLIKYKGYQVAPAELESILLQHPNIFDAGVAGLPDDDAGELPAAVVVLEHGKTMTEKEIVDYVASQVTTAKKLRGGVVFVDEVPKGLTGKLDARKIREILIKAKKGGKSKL
Procedure, shortened: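 Biochemical qHTS of compounds, final roughly 60 µM downward over six points, against 10 nM purified firefly luciferase using Km concentrations of substrates (10 uM D-luciferin, 10 uM ATP) in Tris acetate pH 7.5 buffer; luminescence output.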
Potency means the concentration at half of the fitted maximal effect; tags describe the fitted curve by direction and shape.

| Structure (SMILES) | Potency | activity change, negative = inhibition |
| --- | --- | --- |
| CCCOc1ccc(/C=C2\SC(N)=NC2=O)cc1OC | inconclusive: 16.9 µM [inhibitor, partial curve] | – |
| CCOCCCn1c(SCC(=O)Nc2ccc(F)cc2)nc2c(sc3ccccc32)c1=O | – | inactive: 0.825% |
| Cc1ccc(C(=O)Nc2ccc3nccnc3c2)cc1 | active: 0.953 µM | – |
| Cc1ccc(C(=O)N2CCC(C(=O)c3c(C)cc(C)cc3C)CC2)cc1 | – | inactive: 2.34% |
| O=C(C1=C(O)C(=O)N(c2ccccc2)C1c1ccc([N+](=O)[O-])cc1)c1cccs1 (stereo unspecified) | inconclusive: 15.1 µM [inhibitor, partial curve] | – |
| Cc1nn(-c2ccccc2)c(C)c1/C=N/NC(=O)c1ccccc1NS(=O)(=O)c1cccs1 | active: 10.7 µM | – |
| Cc1cc(NC(=O)c2oc3c(c2C)-c2[nH]ncc2CC3)ccc1Br | – | inactive: 3.07% |
| COc1cccc(/C=N\NC(C)=O)c1OC/C=C/c1ccccc1 | – | inactive: -6.96% |
| COc1cccc(CNC(=O)c2nn(C)c3c2CSc2ccccc2-3)c1 | – | inactive: -1.54% |
| CSc1nnc(C)c(=O)n1COC(=O)c1cc(Cl)ccc1[N+](=O)[O-] | – | inactive: -6.6% |
| NC(=O)c1c(/N=C/c2cccnc2)sc2c1CCCC2 | inconclusive: 30.1 µM [inhibitor, single point] | – |
| CCOC(=O)c1ccc(Nc2c(-c3ccc(N(C)C)cc3)nc3nc[nH]n23)cc1 | – | inactive: -15.6% |
| OCCCNc1nccc(-c2cc(Nc3cccc(Cl)c3)ncn2)n1 | inconclusive: 37.9 µM [inhibitor, partial curve, poor fit] | – |
| O=C(CN1C(=O)CCc2cc(Br)ccc21)Nc1ccc(OC(F)(F)F)cc1 | – | inactive: 3.04% |
| COCCCNc1oc(-c2ccccc2Cl)nc1C#N | inconclusive: 30.1 µM [inhibitor, partial curve, poor fit] | – |
| O=C(/C=C/c1ccc(Cl)cc1)N1CCN(c2ncccn2)CC1 | inconclusive: 3.38 µM [inhibitor, partial curve, poor fit] | – |
| CC1C=CCC2C(=O)N(c3ccc(OC(=O)c4ccco4)cc3)C(=O)C12 (stereo unspecified) | inconclusive: 26.9 µM [inhibitor, partial curve, poor fit] | – |
| COC(=O)c1ccc(NC(=O)CCN2CCOCC2)cc1 | – | inactive: -1.72% |
| Clc1ccc2[nH]c3c(N4CCC5(CC4)OCCO5)ncnc3c2c1 | inconclusive: 30.1 µM [inhibitor, partial curve, poor fit] | – |
| Cc1cccc(NC(=O)CSc2nnc(-c3cc(C)[nH]n3)n2N)c1 | inconclusive: 26.9 µM [inhibitor, partial curve, poor fit] | – |
| Cc1cc([N+](=O)[O-])ccc1N=Nc1c(N)[nH]n(-c2ccccc2)c1=O | – | inactive: -6.16% |
| CCN(C(=O)CSc1ncnc2c1cnn2-c1ccccc1)C1CCS(=O)(=O)C1 (stereo unspecified) | inconclusive: 26.9 µM [inhibitor, partial curve, poor fit] | – |
| Cc1noc(-c2ccc(-c3noc(-c4ccc(Cl)cc4)n3)cc2)n1 | – | inactive: 0.0104% |

| Structure (SMILES) | Potency | activity change, negative = inhibition |
| --- | --- | --- |
| Cc1[nH]cnc1CSCc1ccc(Cl)cc1 | inconclusive: 23.9 µM [inhibitor, partial curve, poor fit] | – |
| COc1ccc(Cc2nc(-c3ccc(Br)cc3)no2)cc1 | inconclusive: 15.1 µM [inhibitor, partial curve] | – |
| COC(=O)[C@]1(C)N[C@H](c2ccc(-c3ccc(Cl)c(Cl)c3)cc2)[C@@H]2C(=O)N(C)C(=O)[C@@H]21 | active: 15.1 µM | – |
| CC(C)(C)c1cc(OC(=O)c2ccncc2)ccc1O | inconclusive: 37.9 µM [inhibitor, partial curve, poor fit] | – |
| Cc1ccc2nc(-c3ccc(Cl)c(NC(=O)COc4ccc([N+](=O)[O-])cc4)c3)oc2c1 | – | inactive: -9.46% |
| COc1cccc(NC(=O)COC(=O)C2C3CC4OC(=O)C2C4C3)c1 (stereo unspecified) | inconclusive: 37.9 µM [inhibitor, partial curve, poor fit] | – |
| COCC(C)n1c(C)cc(C(=O)COc2ccc(N(C)S(=O)(=O)c3ccc(NC(C)=O)cc3)cc2)c1C (stereo unspecified) | inconclusive: 9.53 µM [inhibitor, partial curve] | – |
| O=C(CNC(=O)c1cccc(F)c1)OCc1cc(=O)n2cc(Br)ccc2n1 | inconclusive: 16.9 µM [inhibitor, partial curve] | – |
| CSc1ccc(/C=N/NC(=O)CNc2ccc3ccccc3c2)cc1 | inconclusive: 37.9 µM [inhibitor, partial curve, poor fit] | – |
| CC(O)C(=O)N/N=C/c1cccc2ccccc12 (stereo unspecified) | – | inactive: -14.9% |
| O=C(Nc1ccc(Cl)c(Cl)c1)N1CCSCC1 | inconclusive: 26.9 µM [inhibitor, partial curve] | – |
| Cc1cc(=O)c(C(=O)Nc2cccc(C(=O)NC3CC3)c2)nn1-c1ccccc1Cl | – | inactive: -20.7% |
| Cc1ccsc1/C=N/NC(=O)c1ccco1 | inconclusive: 19 µM [inhibitor, partial curve] | – |
| CC(C)[C@@H](N)C(=O)N/N=C/c1ccc2ncccc2c1 | inconclusive: 33.8 µM [inhibitor, partial curve, poor fit] | – |
| COc1ccccc1Cn1c(C2CC(=O)N(c3ccccc3OC)C2)nc2ccccc21 (stereo unspecified) | – | inactive: -2.18% |
| CC(=O)Nc1ccc(N/C=C/C(=O)c2ccccc2)cc1 | active: 4.78 µM | – |
| COc1ccc(C=C2c3ccccc3C(=O)c3ccccc32)c(OC)c1 | – | inactive: -3.96% |
| CCOC(=O)CSc1nc2cc3c(cc2cc1C#N)OCCO3 | inconclusive: 1.69 µM [inhibitor, partial curve, poor fit] | – |
| CCOc1ccccc1N(C(=O)Nc1ccc(Cl)cc1)C1=NC(C)CS1 (stereo unspecified) | inconclusive: 37.9 µM [inhibitor, single point] | – |
| CC(C)(C)c1ccc(NC(=S)NCc2cccs2)cc1 | inconclusive: 21.3 µM [inhibitor, single point] | – |
| COc1cccc(C2C(C(N)=O)=C(C)Nc3nc(-c4cccc(Cl)c4)nn32)c1 (stereo unspecified) | – | inactive: -2.81% |
| CCN1C(=O)c2ccccc2Sc2ccc(NC(=O)Nc3cc(C)cc(C)c3)cc21 | – | inactive: 2.87% |
| O=C(N/N=C/c1ccccn1)c1cc(-c2cccc3ccccc23)n[nH]1 | inconclusive: 16.9 µM [inhibitor, partial curve] | – |
